Sequences with one replicate were seen in a single cluster, so their values are uncertain.
Tested on: ATP
Test: switch fluorescence ratio, 500 uM ATP over buffer (Cy3 cluster intensity, sum of 5 cycles each) (fold (ratio)); higher = stronger signal-on switching upon ATP binding; sequences stand for … in TCGTCGGCAGCGTCAGATGTGTATAAGAGACAGTTTTTTTTTTTTTTTTTTTTTTTTT…TC
Settings: aptamer strand: ATP DNA aptamer (quencher-CACCTGGGGGAGTATTGCGGAGGAAGG + anchor), 100 nM annealed; ATP concentration: 500 uM; one replicate
Outline: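 Per cluster, summed Cy3 intensity from the target cycles was divided by that from the buffer cycles to give the fluorescence ratio, then averaged per switch-domain sequence. Clusters outside 100-1000 RFU were excluded. The Cy3-labelled switching-strand clusters, on a modified Illumina MiSeq flow-cell, were annealed to 100 nM quencher-labelled ATP aptamer and imaged in selection buffer, then after 15 min with 500 uM ATP at 22 °C, for five cycles with NaOH stripping and re-annealing between them.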
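Further: ATP exposure 15 min at 22 °C before imaging.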

Sequence	switch fluorescence ratio
GTGTGTAGGT	0.907
AAAGTTATTC	1.04
TGAAGAATAT	1.03
TTAATCCGT	1.07
CTATAGCCGG	1.04
CGACGGGGAA	1.06
GATCAATTGT	0.983
ACTCTATTC	1.17
CTGATCAGTG	1.01
GACCTCTCCG	1.98
CATTGCGACG	0.962
TGCTCGCCCT	1.01
TGATCGTCTA	1.01
GGAGCTGTTA	1.01
CTAACGACTA	1.1
GGATTCGGAG	1.03
TTATATGTAA	1.05
TACCCCATTA	1.06
CAACCCGGC	1
AATGTGGCGT	0.967
CCAGGACACG	1.02
GTTAGCGCAA	2.46
GGATTTGTTG	1.04
ATTACACAGA	1.03
TTTTACGGA	1.04
CGGCGGTGAC	1.11

Sequence	switch fluorescence ratio
AGTGGTGATT	1
CGCTATGGTA	0.996
TTTACTGCTC	0.983
AGACGTTTT	0.996
CTCGTACGCG	0.963
TAACTCCTTT	1.02
ATATATTTGC	1.01
TTTTCCACTA	1.04
TTCGGGTCTG	1.05
ACAGCAAAGG	1.12
ACCATAGTAA	1.04
ACGCCGCCT	0.989
ATGCATGTCA	1.04
TATTACTCAT	1.04
AAAAGGAGGT	1.01
CTAGGGGTGA	1.02
TGAGCGCATG	1.03
CCGATACATT	1.87
CAGGGTTGGA	0.994
ACGGGGAACA	1.03
AAGATACTTC	1.02
CCCCCGGTTC	2.18
AACGCGCGTC	1.01
CCGGAGAAAA	1.1
TTCTCACACA	1.09
ATTCATTGAT	1.01

Sequence	switch fluorescence ratio
CACGCGTCGT	0.982
CGATCCGTAC	1.63
CCGGCCATCA	1.06
CATAGTGGTC	0.96
TTTCCAG	1.04
TTTGGTGGGC	0.992
CTACGTCAGA	1.28
CTTGGAGATT	1.01
TCGGAATTGG	1.1
CGTGGAGCGG	0.944
TAATTGATTC	1.03
GAACGCGGGG	1.01
CCAGCTGAGG	0.982
CGTACATGGG	1.04
TCATTCGAGT	1.02
GTAATCTTAA	1.01
TTCAGTTATG	1.01
TCCACCGGGT	1.65
CATTGGCATT	1.01
GAACAGGCAG	0.987
CACTAGAATG	1.04
TATACAAGGT	1.03
CCATTTCCGG	1.02
TTAAAGGAAG	1.02
ACAGGGTTCG	1.01
TCTCGGTAGC	0.974

Sequence	switch fluorescence ratio
AATGGTGTA	1.02
ACAGTATACC	1.19
ACAGCTAGG	1.03
GATAGAGACC	1.03
GCGCAATGGG	1.28
AGGCTGTTGT	0.99
GCACCGCTTG	1
ATCTATTTGG	0.992
GGTGTTTGTG	1.03
TAGATTGTAG	0.977
GATATAATTG	1.02
CTGGTTGGAA	1.03
CTTAAGGCTG	1.03
AATTAAAGGA	0.998
CTAAGGACTG	1.12
CGCATGGCTT	1.1
GCCATATGGA	0.944
GCCCTTGAGT	0.962
AGTAGGAAAG	1.01
TAGCACTAA	2.29
TATTACGACG	1.12
AATAGTGGGG	0.958
GCTTGTGGTG	1
TTTTCGCCCG	1.08
TGCAGAAGCT	1.03
GAATTCGGGG	0.989

Sequence	switch fluorescence ratio
AACGAAAATA	0.978
TTGGCATCCG	0.957
AATATCTCTA	1.01
GGAGGTGAGC	0.971
CGTTTGTCTG	1
TATACCAGGA	1.07
AGATGTTATA	1.01
TGTTATGTT	1.05
CATTTGGTGC	1.03
CCGTTTCACT	1.04
TTAGAGTTGC	1.01
GGATCTCGGC	1.04
TTGGGCTATC	0.966
TGTATTTTG	0.996
CCGCTATTTA	2.48
ACACTTCCCT	1.07
AATAGCAGCG	1.04
GCCAACTTGG	0.992
CTGGGGCAGG	1.1
TTTCGG	1.04
CACTCGTAGC	0.972
CTACGAGCTA	1.2
GACTCATTTC	1.17
ACCTGCCGTT	1.01
GAGGAGGTA	0.968
GGCCAGAAAA	1

Sequence	switch fluorescence ratio
ACGTTTAACA	1.33
CTTAGGATCT	0.935
GCGAGCTCTT	1.02
TCCCCATTCT	1.02
TCTGGGGACA	0.959
ACCGTGCTCG	1.06
ACTATATCGG	1.1
TGAGGGATTG	0.97
CCTGGATACC	1.06
TTGGACTCGT	0.982
CCCCCGCGTT	6.57
CGCCCGGTA	1.08
ACATACATG	1.12
CGTTTTAGGT	1.01
TCATAAAGCT	1.06
AGTTGTGTAA	1.02
CCGGGGCCGC	1.04
TTTGCCCGGA	1.01
TCGAACGAGA	1.01
GGGTGGCTTA	0.984
TTTCACACCT	1.29
AACCATAGTT	0.944
TGTTTTACGC	1.05
TAAGACCCCT	1.09

From the supplement of paper PMC10126150
